According to PubChem BioAssay AID1159614 (National Center for Advancing Translational Sciences (NCATS), 2016):
In all, about 45,000 compounds went through this assay and about 65 (0.1%) were called active. The call rests on the fitted dose curve; in most records, active means well fitted activation curve with a large enough effect; inconclusive means small, poorly fitted or top-dose-only effect; inactive means no such curve, though single readings can be large or run the other way. The list shows a part of the results.

target: Galactocerebrosidase (Homo sapiens) (UniProt P54803); experiment: A Novel Cell-Based Assay to Identify Small Molecules for B -Galactocerebrosidase; conditions: 145M-Twi-hGALC-G270D cells (Twitcher mouse brain line with human GALC G270D), HMU-beta-Gal fluorescence, 48 h; series mostly up to 57.5 µM; activation: at the top concentration; further: 0% is about no effect; nearly all actives have a fitted effect of over 65% in size
UniProt P54803, sequence (P54803 whole entry, looked up): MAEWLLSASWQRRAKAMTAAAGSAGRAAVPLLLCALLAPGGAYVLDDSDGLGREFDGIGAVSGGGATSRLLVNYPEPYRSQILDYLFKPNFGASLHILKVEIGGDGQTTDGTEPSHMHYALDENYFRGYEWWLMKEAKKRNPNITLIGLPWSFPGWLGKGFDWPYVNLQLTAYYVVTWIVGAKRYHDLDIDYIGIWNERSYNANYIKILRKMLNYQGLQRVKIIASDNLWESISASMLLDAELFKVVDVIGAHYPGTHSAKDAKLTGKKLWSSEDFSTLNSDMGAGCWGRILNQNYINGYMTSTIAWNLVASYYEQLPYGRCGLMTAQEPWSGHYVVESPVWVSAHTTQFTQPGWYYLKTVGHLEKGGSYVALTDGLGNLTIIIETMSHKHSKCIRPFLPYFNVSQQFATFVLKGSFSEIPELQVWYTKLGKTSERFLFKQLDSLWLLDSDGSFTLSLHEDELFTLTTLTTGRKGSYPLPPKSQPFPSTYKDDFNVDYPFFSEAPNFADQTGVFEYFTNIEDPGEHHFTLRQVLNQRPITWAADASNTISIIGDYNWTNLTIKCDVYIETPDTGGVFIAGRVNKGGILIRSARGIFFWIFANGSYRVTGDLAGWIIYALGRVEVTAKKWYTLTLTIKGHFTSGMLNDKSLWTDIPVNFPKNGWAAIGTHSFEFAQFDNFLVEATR
Method in brief: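 Fluorogenic HMU-b-Gal hydrolysis (0.1 mM final, pH 5.2 citrate-phosphate with 1 mg/mL sodium taurocholate; carbonate stop buffer) measures mutant GALC activity after compound treatment of live 145M-Twi Twitcher brain cells stably carrying human GALC-G270D, with wild-type GALC line alongside; activation sought.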

activation, inactive:
COCCn1c(C)cc(O)c(C(c2ccccc2)N2CCN(c3ccccc3F)CC2)c1=O (centres undefined) -0.0281%, O=C(CSc1cn(CCNC(=O)c2ccccc2F)c2ccccc12)Nc1ccc2c(c1)OCCO2 -10.7%, CC(Nc1ccc(-c2nc(-c3cccnc3)no2)cc1[N+](=O)[O-])c1ccccc1 (centres undefined) -10.2%, CCS(=O)(=O)c1ccc(C(=O)N2CCN(c3nc4c(OC)ccc(C)c4s3)CC2)cc1 -40%, O=C(O)CN(CCOCCOCCN(CC(=O)O)CC(=O)O)CC(=O)O -13.1% [at 0.46 µM], COc1cc([C@@H]2c3cc4c(cc3[C@H](O)[C@H]3COC(=O)[C@H]23)OCO4)cc(OC)c1OC -6.6%, CC1CCCCN1Cc1nc2c(c(=O)n(C)c(=O)n2C)n1Cc1ccc(Br)cc1 (centres undefined) -12.1%, Cc1ccc2c(Sc3ccc(Cl)cc3)c(C(=O)N3CCCCC3)[nH]c2c1 -16.3%, COc1ccc(NC(=O)c2c(-c3ccc(C)cc3)nnc3ccccc23)cc1OC -7.74%, COc1ccccc1-c1nc(CNC(=O)NC2CCCCC2)c(C)o1 -10.3%, COc1cccc(NC(=O)CSc2cc(C)c3ccccc3n2)c1 -8.67%, O=C(Cn1ncc2ccsc2c1=O)N1CCN(c2ccc(Cl)cc2)CC1 -12.8%, Cc1ccc(NC(=O)CCn2nc(C)c3c(C)n(-c4ccccc4)nc3c2=O)cc1Cl -13.7%, CC(C)c1ccc(NC(=O)c2cn(C3CCCC3)c(=O)c3c2c2ccccc2n3C)cc1 -14.6%, O=C(c1ccccc1Cl)n1nc(-c2ccco2)nc1NCc1cccs1 -25%, COc1ccc(OC)c(CCNc2ncnc3onc(-c4ccc(Cl)cc4)c23)c1 -19.9%, Cc1cccc(CNC(=O)c2cnc3c(-c4cccc(C)c4)c(C)nn3c2C)c1 -8.8%, CCCCC(=O)N1c2ccccc2C(C)(c2ccccc2)CC1(C)C (centres undefined) -17.1%, Cn1c(=O)c2cc(S(=O)(=O)NC(Cc3ccccc3)C(=O)Nc3ccc(F)cc3)ccc2n(C)c1=O (centres undefined) -6.42%, CC(=O)N1CCCc2cc(S(=O)(=O)N(C)CC(=O)Nc3cccc(Cl)c3C)ccc21 -0.162%, CCc1ccc(S(=O)(=O)NCCc2cn3ccsc3n2)cc1 4%, Cc1nc(-n2nc(C)c(Cc3ccc(Cl)cc3)c2C)sc1C(=O)N1CCC(C)CC1 -2.82%, Cc1ccc(NC(=O)CSc2nc3c(oc4ccccc43)c(=O)n2Cc2ccco2)cc1F -3.48%, Cc1ccccc1Cn1c2ccccc2c2cnn(CC(=O)NCc3cccc(Cl)c3)c(=O)c21 -24.5%, CCN(CC)c1ccc(NC(=O)COCc2cc(-c3ccc4c(c3)OCO4)on2)c(C)c1 -21.1%, Cc1ccc(N2CCN(C(=O)c3c(C)oc4ncn(C)c(=O)c34)CC2)c(C)c1 -10%, CCOC(=O)c1ccc(CN(Cc2ccc(F)cc2)S(=O)(=O)c2ccc(F)c(C(=O)Nc3cc(Cl)ccc3OC)c2)cc1 -15.8%, Cn1cc(-c2cc3n(n2)CCC(=O)N3CCCC(=O)Nc2ccc(Cl)cc2)c2ccccc21 -2.77%, CC(=O)N1CCCc2cc(S(=O)(=O)N(C)CC(=O)Nc3ccc(C(C)C)cc3)ccc21 18.4%, CC(C)c1ccc(OCC(=O)Nc2ccc(S(=O)(=O)Nc3ncccn3)cc2)cc1 -10.4%, OC1(c2ccc(Cl)cc2)CCNCC1 -15.7%, COc1ccc(NC(=O)Cn2ccn(-c3ccc(F)c(F)c3)c(=O)c2=O)cc1Cl -20.7%, COc1ccc(CNC(=O)CCC2N=C3c4ccccc4N=C(SCC(=O)NCCc4ccc(OC)c(OC)c4)N3C2=O)cc1 (centres undefined) -15.5%, COc1cccc(CNC(=O)c2sc3nc[nH]c(=O)c3c2C)c1 -6.73%, CN(C)CCCSc1ccccc1NC(=O)/C=C/c1ccccc1 25.3%, CC(C)OC(=O)c1c(NC(=O)c2cccc(C(F)(F)F)c2)sc2c1CCCC2 -12.3%, O=C1CC(c2ccccc2)Sc2ccccc2N1Cc1ccccc1F (centres undefined) -2.77%, Cc1cccc(C)c1OCCn1c(CCNC(=O)C2CCCCC2)nc2ccccc21 -20%, COc1ccc(C2Nc3ccccc3-c3cc(C)nn32)c(OC)c1 (centres undefined) -10.5%, COc1ccc(C)c2sc(NC(=O)c3ccc(S(=O)(=O)N4CCOCC4)cc3)nc12 -7.14%, COc1ccccc1CNC(=O)C(=O)NCC(c1ccco1)S(=O)(=O)c1ccc(F)cc1 (centres undefined) -8.39%, COc1ccc(C(=O)Oc2c(Sc3ccccc3)c(C)nn2-c2ccccc2)c(OC)c1 -13.1%, COc1cccc(N2CCN(C(=O)c3cnc4c(-c5ccc(F)cc5)c(C)nn4c3C)CC2)c1 -15.8%, CCN(CC)S(=O)(=O)c1ccc2c(c1)N(CC(=O)Nc1ccc(Cl)cc1)C(=O)C1CCCN21 (centres undefined) -15%, CC(C)(C)c1ccc(C(=O)NCC(c2ccco2)S(=O)(=O)c2ccccc2)cc1 (centres undefined) -14.5%, COC(=O)c1ccccc1NS(=O)(=O)c1cc2c3c(c1)CC(=O)N3CCC2 -11.6%, CC1=C(C(=O)Nc2ccccc2)C(c2ccccn2)n2nc(SCc3ccccc3)nc2N1 (centres undefined) -21.2%, Cc1ccc2c(c1)C(c1ccccc1)N(C(=O)COc1ccc(Cl)cc1Cl)CC(=O)N2 (centres undefined) -8.1%, Cc1ccc(-n2nc(C)c3c(C(=O)Nc4ccccc4C(F)(F)F)cc(C)nc32)cc1 -6.45%, Cc1c(Cl)ccc2sc(N3CCN(C(=O)CCS(=O)(=O)c4ccc(F)cc4)CC3)nc12 -32.4%, COc1ccc(-c2nc3ccccc3n2Cc2ccccc2)cc1 -17.1%, CCCCCOc1ccc(NC(=O)Cn2c(-c3nonc3N)nc3ccccc32)cc1 -7.19%, CCOc1ccc2nc(N(Cc3cccnc3)C(=O)c3cccs3)sc2c1 -11.2%, COc1cccc(-c2nc(Cn3c(=O)cc(C)c4c(C)nn(-c5ccccc5)c43)c(C)o2)c1OC -8.2%, COc1cccc(C(=O)Nc2nc(-c3nnn(-c4ccccc4C(F)(F)F)c3C)ns2)c1 5.83%, COc1cccc(CNC(=O)Cn2nc(C)n3c(cc4cc(C)ccc43)c2=O)c1OC -7.28%, CCSc1nc(-c2cccc(Cl)c2)nc2c1Cc1c(CO)cnc(C)c1O2 -7.82%, CCCN(C(=O)c1cc2c(=O)oc3ccc(C)cc3c2s1)c1ccc(OCC)cc1 3.18%, CCCCN1C(=O)C(O)(CC(=O)c2ccc(CC)cc2)c2cc(Br)ccc21 (centres undefined) -7.59%, CC(C)CN(C(=O)c1cccc(S(=O)(=O)N2CCCCC2)c1)C1CCS(=O)(=O)C1 (centres undefined) -24.7%, Cc1ccc2nc(Nc3cccc(Cl)c3C)c(-n3nc(C)cc3C)nc2c1 -17.1%, Cc1c(-c2nc(-c3ccc4c(c3)OCO4)no2)nnn1-c1ccc(Br)cc1F -9.19%, Cc1ccccc1NC(=O)Cn1c(SCC(=O)Nc2ccc(F)cc2)nc2ccccc21 -10.7%, CCOC(=O)c1ccc(NC(=O)Cn2c(=O)n(-c3ccc(C)cc3)c(=O)c3c2cnn3C)cc1 -14%, O=C(O)c1ccc(CNCc2ccc(Cl)cc2)s1 0.614%, CCOC(=O)c1c(NC(=O)c2nc(SCC)ncc2Cl)sc(C(C)=O)c1C -25.5%, O=C(COc1ccccc1Cl)OCc1cc(=O)n2nc(-c3cccs3)sc2n1 -13.7%, Cc1ccc(CNC(=O)Cc2c(C)c3cc4c(C)coc4cc3oc2=O)cc1 -6.44%, CCC(=O)N1CCc2cc(Br)cc(S(=O)(=O)CCC(=O)N3CCN(c4cccc(C(F)(F)F)c4)CC3)c21 -24.7%, O=[N+]([O-])c1cc(-c2nc(-c3ccccc3)no2)ccc1N1CCCCC1 -15.3%, Cc1ccc(NC(=O)C2CCCN(c3nnc(C)c4c(C)n(-c5ccccc5)nc34)C2)c(Cl)c1 (centres undefined) -12.8%, Cc1ccc(S(=O)(=O)Cc2ccc(C(=O)N3CCN(c4cccc(C)c4C)CC3)o2)cc1 -14.2%, CCC(Cn1nnc2ccccc2c1=O)NC(=O)Nc1cccc(C)c1C (centres undefined) -9.45%, COc1ccc(C(=O)OCc2cc(=O)n3nc(-c4cccs4)sc3n2)cc1 -18.5%, O=C(Cn1c(=O)n(Cc2ccco2)c(=O)c2ccccc21)Nc1ccc(Cl)cc1Cl -12.2%, CC1=C(C(=O)Nc2ccccc2)C(c2ccncc2)n2nc(SCc3ccccc3Cl)nc2N1 (centres undefined) 7.78%, CCOC(=O)c1cc(S(=O)(=O)NCc2ccccc2)[nH]n1 -2.73%, CC(C)(C)c1ccc(S(=O)(=O)NCc2ccc3c(c2)CCN3C(=O)c2ccccc2)cc1 3.21%, COc1cc(-c2noc(-c3ccc(N4CCN(C)CC4)c([N+](=O)[O-])c3)n2)cc(OC)c1OC -13.4%, O=C(c1ccc(Cl)cc1)N1CCC(c2ccncc2)CC1 -8.58%, CCN(CC)S(=O)(=O)c1ccc2nc(NC(=O)c3cccnc3)sc2c1 -13.3%, O=C(Cn1c(=O)ccc2cc(S(=O)(=O)N3CCCC3)ccc21)NCc1ccc(Cl)cc1 -15.5%, CCC(CO)NC(=O)C(=O)Nc1c2c(nn1-c1ccc(F)cc1)CSC2 (centres undefined) -2.62%, CCN(c1ncnc2c1cnn2-c1ccc(C)cc1)C1CCCCC1 -5.25%, Cc1cc(Nc2ccc(C)c(Cl)c2)n2nc(Cc3ccccc3)nc2n1 -17.1%, CCOC(=O)c1cccc(NC(=O)c2cc3sccc3n2Cc2ccc(Cl)cc2)c1 10.4%, CCOc1ccc(CCNC(=O)CCc2cn(Cc3ccccc3F)c3ccccc23)cc1OCC -8.52%, CCOc1ccc(NC(=O)c2c(Nc3ccc(OC)cc3OC)sc(C(=O)c3ccc(Cl)cc3)c2N)cc1 -28%, COCCn1c(=O)[nH]c2cc(C(=O)NCc3ccccc3Cl)ccc2c1=O -4.34%, CCOc1ccc(NC(=O)CSc2nc(-c3ccc(OC)cc3)nc3c2Cc2c(CO)cnc(C)c2O3)cc1 -10.9%, CC(C)CN(CCCNC(=O)c1cc(=O)[nH]c2ccc(S(=O)(=O)N3CCCCCC3)cc12)CC(C)C -4.47%, CC(=O)N1c2nc(C(C)C)nn2C2(CCCCC2)[C@@H]2CCCC[C@@H]21 -9.2%, CCOc1ccc2oc(=O)cc(CN3CCN(c4cc(C)ccc4C)CC3)c2c1 -7.7%, Cc1nc2nc(NC(=O)c3ccccc3F)[nH]n2c(=O)c1Cl -18.2%
